Results from a collection of fitness landscapes (doi:10.1016/j.celrep.2020.107928).
Whole data set: some 81,000 sequences, median “one-hybrid fitness for binding parS DNA” near -0.17, cut for the highest 2% near 0.51. Some of the results follow.

B1: Caulobacter ParB omega fusion; a variant is named by its letters at X, in order, B8GW30 (parent)
chain: MESVVVGEPGMSEGRRGLGRGLSALLGEVDAAPAQAPGEQLGGSREAPIEILQRNPDQPRRTFREEDLEDLSNSIREKGVLQPILVRPSPDTAGEYQIVAGERAWRAAQRAGLKTVPIMVRELDDLAVLEIGIIENVQRADLNVLEEALSYKVLMEKFERTQENIAQTIGKSXSHVANXMRLLXLPDEVQSYLVSGELTAXHARAIAAAADPVALAKQIIEGGLSVRETEALARKAPNLSAGKSKGGRPPRVKDTDTQALESDLSSVLGLDVSIDHRGSTGTLTITYATLEQLDDLCNRLTRGI

Variants of: B1
Assay: one-hybrid fitness for binding parS DNA (scaled: cognate 1, non-cognate 0); higher = stronger binding
Details: with parS DNA site
Method in brief: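 On M9-minus-histidine containing 0.1 mM IPTG and 5 mM 3-AT, E. coli USO cells with a HIS3 reporter, site 19 bp from the promoter, grew 48 hours at 37°C to select Caulobacter ParB libraries randomised at four specificity codons. Plasmids from before and after were Illumina-sequenced, with three replicate libraries pooled and variants under 10 reads left out. Fitness is the log change in variant-to-wild-type read ratio, rescaled against cognate and non-cognate.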

Variant	one-hybrid fitness for binding parS DNA
NGTY	≤ 0.2
KQSE	≤ 0.2
SMKV	≤ 0.2
LSFI	≤ 0.2
GSSN	≤ 0.2
PQDC	≤ 0.2
FWRY	≤ 0.2
VFRG	≤ 0.2
PLDD	≤ 0.2
WMRC	≤ 0.2
NMSS	≤ 0.2
NTLL	≤ 0.2
NTSH	≤ 0.2
CVTT	≤ 0.2
MCQS	≤ 0.2
HNAK	≤ 0.2
QQPI	≤ 0.2
SYQK	≤ 0.2
MRPT	≤ 0.2
LKYC	≤ 0.2
WTRW	≤ 0.2
PCNS	≤ 0.2
ITMK	≤ 0.2
HVQL	≤ 0.2

Variant	one-hybrid fitness for binding parS DNA
AAMQ	≤ 0.2
RRHK	≤ 0.2
LHEG	≤ 0.2
RICC	0.92
HCIY	≤ 0.2
YPIR	≤ 0.2
DATG	≤ 0.2
VYMW	≤ 0.2
MHCR	≤ 0.2
SQAQ	≤ 0.2
NNVT	≤ 0.2
TWFK	≤ 0.2
NTKL	≤ 0.2
HGYT	≤ 0.2
PADL	≤ 0.2
EMSG	≤ 0.2
ARCC	≤ 0.2
THKF	≤ 0.2
HLVN	≤ 0.2
PPAQ	≤ 0.2
MGWW	≤ 0.2
PRNI	≤ 0.2
PRYV	≤ 0.2
QMSL	≤ 0.2

Variant	one-hybrid fitness for binding parS DNA
RKLH	0.223
FHNQ	0.318
DRHG	≤ 0.2
WLGC	≤ 0.2
STWT	≤ 0.2
SVSV	≤ 0.2
RQYY	0.494
PDYR	≤ 0.2
QYKK	≤ 0.2
IRAV	≤ 0.2
TWYR	≤ 0.2
VTLE	≤ 0.2
SPMY	≤ 0.2
HKVC	≤ 0.2
QVER	≤ 0.2
APQY	≤ 0.2
HSEQ	≤ 0.2
CFTM	≤ 0.2
SMTC	≤ 0.2
QKKF	≤ 0.2
DSRW	≤ 0.2
PWPC	≤ 0.2
CIRD	≤ 0.2
MMLG	≤ 0.2

Variant	one-hybrid fitness for binding parS DNA
IFKT	≤ 0.2
SCQY	≤ 0.2
AQHW	≤ 0.2
QCCA	≤ 0.2
TKET	≤ 0.2
LMNG	≤ 0.2
GCIS	≤ 0.2
HCSE	≤ 0.2
WNCL	≤ 0.2
RKER	≤ 0.2
TQLQ	≤ 0.2
YLSC	≤ 0.2
LRRA	≤ 0.2
RQTD	0.217
HHSP	≤ 0.2
QSKE	≤ 0.2
QPYN	≤ 0.2
QFIM	≤ 0.2
VWYT	≤ 0.2
VYMC	≤ 0.2
YAYT	≤ 0.2
EQRF	≤ 0.2
TSGS	≤ 0.2
MHAT	≤ 0.2

Variant	one-hybrid fitness for binding parS DNA
QVLA	≤ 0.2
APAM	≤ 0.2
DMSS	≤ 0.2
HQTG	≤ 0.2
REHW	≤ 0.2
LYAV	≤ 0.2
QTML	≤ 0.2
TWSG	≤ 0.2
SYQW	≤ 0.2
DVHC	≤ 0.2
QAWW	≤ 0.2
CRTL	≤ 0.2
RNGP	≤ 0.2
RQMD	≤ 0.2
TIPM	≤ 0.2
PRFH	≤ 0.2
KRIP	≤ 0.2
RRTC	0.616
CQCL	≤ 0.2
KGKV	≤ 0.2
GTAD	≤ 0.2
SNYS	≤ 0.2
GNPR	≤ 0.2
DATL	≤ 0.2

Variant	one-hybrid fitness for binding parS DNA
GSQC	≤ 0.2
QELQ	≤ 0.2
CAKG	≤ 0.2
ACWL	≤ 0.2
QPVH	≤ 0.2
NTNE	≤ 0.2
KGEV	≤ 0.2
ILGL	≤ 0.2
AKAR	≤ 0.2
LLIV	≤ 0.2
NALV	≤ 0.2
QYHE	≤ 0.2
CGNI	≤ 0.2
DRKS	≤ 0.2
PTWW	≤ 0.2
NTNQ	≤ 0.2
MCMR	≤ 0.2
TLHG	≤ 0.2
HSHM	≤ 0.2
QHSS	≤ 0.2
KPLD	≤ 0.2
FSLC	≤ 0.2
VVQF	≤ 0.2
NVGS	≤ 0.2

Variant	one-hybrid fitness for binding parS DNA
VAQW	≤ 0.2
PPTR	≤ 0.2
PNPL	≤ 0.2
LDCG	≤ 0.2
NVLW	≤ 0.2
KMQC	≤ 0.2
CMRT	≤ 0.2
REFG	≤ 0.2
VMAV	≤ 0.2
SLIG	≤ 0.2
TRHE	≤ 0.2
SCKK	≤ 0.2
MHPL	≤ 0.2
AVPE	≤ 0.2
TMPC	≤ 0.2
CILL	≤ 0.2
KSRH	≤ 0.2
DKNT	≤ 0.2
ALPT	≤ 0.2
LVIC	≤ 0.2
WYAS	≤ 0.2
SFMH	≤ 0.2
NNNL	≤ 0.2
GRLY	≤ 0.2

Variant	one-hybrid fitness for binding parS DNA
PHEF	≤ 0.2
PLLE	≤ 0.2
RFHM	0.301
QACC	≤ 0.2
PKRG	≤ 0.2
ITYM	≤ 0.2
NRSI	≤ 0.2
NLDH	≤ 0.2
PIEG	≤ 0.2
SMLI	≤ 0.2
DGIM	≤ 0.2
PSHY	≤ 0.2
ICNL	≤ 0.2
RCVG	0.991
WVNG	≤ 0.2
LLWV	≤ 0.2
QFNI	≤ 0.2
WLVA	≤ 0.2
CKDR	≤ 0.2
VWLP	≤ 0.2
KCQR	≤ 0.2
EPTT	≤ 0.2
WCAC	≤ 0.2
MMTS	≤ 0.2

Variant	one-hybrid fitness for binding parS DNA
PGPR	≤ 0.2
AALL	≤ 0.2
CQRY	≤ 0.2
PKAK	≤ 0.2
TKYM	≤ 0.2
QTLN	≤ 0.2
PNAQ	≤ 0.2
CLDE	≤ 0.2
QGCI	≤ 0.2
SAGI	≤ 0.2
MLIY	≤ 0.2
YSTM	≤ 0.2
PTLA	≤ 0.2
KVMR	≤ 0.2
AATP	≤ 0.2
TRLD	≤ 0.2
HSVG	≤ 0.2
QRLM	≤ 0.2
RDNV	≤ 0.2
SVHG	≤ 0.2
KDTP	≤ 0.2
RTWV	≤ 0.2
WPPI	≤ 0.2
VCNR	≤ 0.2

Variant	one-hybrid fitness for binding parS DNA
VEPF	≤ 0.2
LGWC	≤ 0.2
NHYF	≤ 0.2
HART	≤ 0.2
VIRT	≤ 0.2
CMHG	≤ 0.2
VGSV	≤ 0.2
DATA	≤ 0.2
NTGC	≤ 0.2
HAPS	≤ 0.2
LYSS	≤ 0.2
GPGA	≤ 0.2
QCTF	≤ 0.2
DMYA	≤ 0.2
PIFR	≤ 0.2
LHEL	≤ 0.2
HAQR	≤ 0.2
NQDT	≤ 0.2
RVHF	0.211
VRKG	≤ 0.2
WHTS	≤ 0.2
RRLG	0.794
PRYK	≤ 0.2
TPKL	≤ 0.2

Variant	one-hybrid fitness for binding parS DNA
KVKE	≤ 0.2
PAQC	≤ 0.2
TLIR	≤ 0.2
CWAY	≤ 0.2
QPPQ	≤ 0.2
PAVK	≤ 0.2
INYG	≤ 0.2
LYVP	0.237
VKNT	≤ 0.2
TAQD	≤ 0.2
FESD	≤ 0.2
LHKI	≤ 0.2
NRCV	≤ 0.2
ARGG	≤ 0.2
AIES	≤ 0.2
KVKV	≤ 0.2
RGQE	≤ 0.2
SGAY	≤ 0.2
VYLV	≤ 0.2
RWQM	≤ 0.2
KRNG	≤ 0.2
KTKM	≤ 0.2
VSDC	≤ 0.2
MEDR	≤ 0.2

Variant	one-hybrid fitness for binding parS DNA
IRKC	≤ 0.2
GRAM	≤ 0.2
FSRK	≤ 0.2
TLQM	≤ 0.2
RWFN	≤ 0.2
NSIA	≤ 0.2
TWII	≤ 0.2
SRFV	≤ 0.2
AEQR	≤ 0.2
RDRR	≤ 0.2
SRMC	≤ 0.2
REFV	≤ 0.2
RKEM	0.262
AWSY	≤ 0.2
DQPW	≤ 0.2
KYHT	≤ 0.2
MYHV	≤ 0.2
WFRG	≤ 0.2
SVGK	≤ 0.2
MASR	≤ 0.2
YRFY	≤ 0.2
CRDT	≤ 0.2
QKIA	≤ 0.2
PCYS	≤ 0.2

Variant	one-hybrid fitness for binding parS DNA
DLMC	≤ 0.2
WRNC	≤ 0.2
YSKR	≤ 0.2
RFRC	0.969
ESQH	0.412
YAPF	≤ 0.2
DISW	≤ 0.2
PTMF	≤ 0.2
ISMS	≤ 0.2
HYWT	≤ 0.2
ITLG	≤ 0.2
RDPK	≤ 0.2
DASY	≤ 0.2
KLLD	≤ 0.2
DPFR	≤ 0.2
FQTS	≤ 0.2
HQTL	≤ 0.2
QIVR	≤ 0.2
